Source: patent publication US20240343788A1 (published 2024)

How the values were obtained:
Activin AB = biological target: T1, Activin AB (human, UniProt P08476 311-426; P09529 293-407); test: BLI (Octet RED96), antagonist captured on biosensor, ligand in solution
T1 construct: the beta A / beta B heterodimer is general knowledge
T1 sequence (looked up) 1: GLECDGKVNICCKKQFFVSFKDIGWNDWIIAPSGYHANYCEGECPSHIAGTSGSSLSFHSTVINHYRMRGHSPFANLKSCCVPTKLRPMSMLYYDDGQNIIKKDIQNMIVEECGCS
T1 sequence (looked up) 2: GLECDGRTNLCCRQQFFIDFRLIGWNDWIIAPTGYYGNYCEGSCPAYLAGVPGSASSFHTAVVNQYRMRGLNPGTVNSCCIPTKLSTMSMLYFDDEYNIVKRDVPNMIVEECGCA
Excerpt: (§1) The binding sensorgrams were collected using the 8-channel detection mode on the biosensor.

GDF-8 [1] = biological target: T2, GDF-8 (human); test: as above
T2 construct: also called myostatin; Myostatin (GDF-8)
Excerpt: as §1

TGF-β1 [2] = biological target: T3, TGF-β1 (human, UniProt P01137 fragment); test: as above
T3 construct: also called TGF-31 (misprint in the text)
Excerpt: as §1

Activin A [3] = biological target: T4, Activin A (human); test: as above
T4 construct: also called human activin A
Excerpt: as §1

GDF-11 [4] = biological target: T5, GDF-11 (human, UniProt O95390 299-407); test: as above
Excerpt: as §1

TGF-β3 [5] = biological target: T6, TGF-β3 (human, UniProt P10600 301-412); test: as above
T6 construct: also called TGF-33 (misprint in the text)
T6 sequence (looked up): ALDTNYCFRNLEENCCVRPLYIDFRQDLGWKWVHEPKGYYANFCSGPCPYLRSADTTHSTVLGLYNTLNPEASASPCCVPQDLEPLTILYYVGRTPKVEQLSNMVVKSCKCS
Excerpt: as §1

GDF-8 [6] = biological target: T2, GDF-8; test: cell-based or functional assay
GDF-11 [7] = biological target: T5, GDF-11; test: cell-based or functional assay
T5 sequence (O95390 299-407 limits assumed): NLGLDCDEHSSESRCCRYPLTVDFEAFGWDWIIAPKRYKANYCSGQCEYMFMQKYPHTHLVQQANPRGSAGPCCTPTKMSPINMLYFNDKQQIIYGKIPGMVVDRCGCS

TGF-β1 [8] = biological target: T3, TGF-β1; test: cell-based or functional assay
T3 sequence (P01137 279-390 limits assumed): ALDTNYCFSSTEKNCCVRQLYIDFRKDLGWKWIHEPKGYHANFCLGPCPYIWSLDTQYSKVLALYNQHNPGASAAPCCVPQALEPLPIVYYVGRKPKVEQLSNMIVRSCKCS

TGF-β3 [9] = biological target: T6, TGF-β3; test: cell-based or functional assay
Activin B [10] = biological target: T7, Activin B (human, UniProt P09529 293-407); test: cell-based or functional assay
T7 sequence (looked up): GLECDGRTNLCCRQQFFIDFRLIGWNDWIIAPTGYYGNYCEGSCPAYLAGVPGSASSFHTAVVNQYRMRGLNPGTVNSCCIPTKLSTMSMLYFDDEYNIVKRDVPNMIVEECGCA

Activin A [11] = biological target: T4, Activin A; test: cell-based or functional assay
Activin B [12] = biological target: T7, Activin B; test: BLI (Octet RED96), antagonist captured on biosensor, ligand in solution
Excerpt: as §1

Binder | Kd (Activin AB) | Kd (GDF-8 [1]) | Kd (TGF-β1 [2]) | Kd (Activin A [3]) | Kd (GDF-11 [4]) | Kd (TGF-β3 [5]) | IC50; neutralisation of GDF-8 signalling, C2C12-CAGA-luc Smad2/3 luciferase reporter cells (RLU) (GDF-8 [6]) | IC50; neutralisation of GDF-11 signalling, C2C12-CAGA-luc Smad2/3 luciferase reporter cells (RLU) (GDF-11 [7]) | IC50; neutralisation of TGF-β1 signalling, C2C12-CAGA-luc Smad2/3 luciferase reporter cells (RLU) (TGF-β1 [8]) | IC50; neutralisation of TGF-β3 signalling, C2C12-CAGA-luc Smad2/3 luciferase reporter cells (RLU) (TGF-β3 [9]) | IC50; neutralisation of Activin B signalling, C2C12-CAGA-luc Smad2/3 luciferase reporter cells (RLU) (Activin B [10]) | IC50; neutralisation of Activin A signalling, C2C12-CAGA-luc Smad2/3 luciferase reporter cells (RLU) (Activin A [11]) | Kd (Activin B [12])
A115 (Fc fusion, also called multispecific antagonist molecule A115; multispecific polypeptide antagonist A115) [no letters for about 120 residues]GGGGSGGGGSGGGGS[no letters for human IgG1 Fc]GGGGSGGGGSGGGGSTIPPHVQKSVNNDMIVTDNNGAVKFPQLCKFCDVRFSTCDNQKSCMSNCSITSICEKPQEVCVAVWRKNDENITLETVCHDPKLPYHDFILEDAASPKCIMKEKKKPGETFFMCSCSSDECNDNIIFSEEYNTSNPD | ~0.001 nM | ~0.001 nM | ~0.443 nM | ~0.0118 nM | ~6.06 nM | ~0.001 nM | 0.8 nM | 2.6 nM | 3.2 nM | 0.2 nM | 0.2 nM | 1.7 nM | –
A117 (Fc fusion, also called multispecific antagonist molecule A117) GNCWLRQAKNGRCQVLYKTELSKEECCSTGRLSTSWTEEDVNDNTLFKWMIFNGGAPNCIPCKETCENVDCGPGQSCVVDQTGSPRCVCAPDCSNITWKGPVCGLDGKTYRNECALLKARCKEQPELEVQYQGRCKKTCRDVFCPGSSTCVVDQTNNAYCVTCNRICPEPASSEQYLCGNDGVTYSSACHLRKATCLLGRSIGLAYEGKCIKAKSCEDIQCTGGKKCLWDFKVGRGRCSLCDELCPDSKSDEPVCASDNATYASECAMKEAACSSGVLLEVKHSGSCNSISEDTEEEEEDEDQDYSFPISSILEWGGGGSGGGGSGGGGS[no letters for human IgG1 Fc]GGGGSGGGGSGGGGSTIPPHVQKSVNNDMIVTDNNGAVKFPQLCKFCDVRFSTCDNQKSCMSNCSITSICEKPQEVCVAVWRKNDENITLETVCHDPKLPYHDFILEDAASPKCIMKEKKKPGETFFMCSCSSDECNDNIIFSEEYNTSNPD | ~0.00517 nM | ~0.00517 nM | ~0.534 nM | ~0.195 nM | ~6.12 nM | ~0.001 nM | 1.2 nM | 11 nM | 4.3 nM | 0.4 nM | 1.1 nM | 11 nM | ~0.126 nM
A216 (Fc fusion) [no letters for human IgG1 Fc]GGGGSGGGGSGGGGSETQECLFFNANWEKDRTNQTGVEPCYGDKDKRRHCFATWKNISGSIEIVKQGCWLDDINCYDRTDCVEKKDSPEVYFCCCEGNMCNEKFSYFPEMEVTQPTSNPVTPKPPGGGGSGGGGSGGGGSTIPPHVQKSDVEMEAQKDEIICPSCNRTAHPLRHINNDMIVTDNNGAVKFPQLCKFCDVRFSTCDNQKSCMSNCSITSICEKPQEVCVAVWRKNDENITLETVCHDPKLPYHDFILEDAASPKCIMKEKKKPGETFFMCSCSSDECNDNIIFSEEYNTSNPD | ~0.001 nM | ~0.00195 nM | ~0.001 nM | ~0.112 nM | ~0.005 nM | ~0.0021 nM | – | – | – | – | – | – | –
A167 (bispecific antibody, also called antibody-based multispecific antagonist A167) heavy: QVQLVQSGAEVKKPGASVKVSCKASGYTFTSYGLSWVRQAPGQGLEWMGWIIPYNGNTNSAQKLQGRVTMTTDTSTSTAYMELRSLRSDDTAVYFCARDRDYGVNYDAFDIWGQGTMVTVSSGGGGSGGGGSGGGGSQVQLVQSGAEVKKPGSSVKVSCKASGYTFSSNVISWVRQAPGQGLEWMGGVIPIVDIANYAQRFKGRVTITADESTSTTYMELSSLRSEDTAVYYCASTLGLVLDAMDYWGQGTLVTVSSASTKGPSVFPLAPCSRSTSESTAALGCLVKDYFPEPVTVSWNSGALTSGVHTFPAVLQSSGLYSLSSVVTVPSSSLGTKTYTCNVDHKPSNTKVDKRV[no letters for human IgG4 Fc] light: not shown | – | – | ~0.001 nM | – | – | – | – | – | – | – | – | – | –

The remaining binders from weak to strong by Kd (TGF-β1 [2]), led by results:

Kd (Activin AB) | Kd (GDF-8 [1]) | Kd (TGF-β1 [2]) | Kd (Activin A [3]) | Kd (GDF-11 [4]) | Kd (TGF-β3 [5]) | IC50; neutralisation of GDF-8 signalling, C2C12-CAGA-luc Smad2/3 luciferase reporter cells (RLU) (GDF-8 [6]) | IC50; neutralisation of GDF-11 signalling, C2C12-CAGA-luc Smad2/3 luciferase reporter cells (RLU) (GDF-11 [7]) | IC50; neutralisation of TGF-β1 signalling, C2C12-CAGA-luc Smad2/3 luciferase reporter cells (RLU) (TGF-β1 [8]) | IC50; neutralisation of TGF-β3 signalling, C2C12-CAGA-luc Smad2/3 luciferase reporter cells (RLU) (TGF-β3 [9]) | IC50; neutralisation of Activin B signalling, C2C12-CAGA-luc Smad2/3 luciferase reporter cells (RLU) (Activin B [10]) | IC50; neutralisation of Activin A signalling, C2C12-CAGA-luc Smad2/3 luciferase reporter cells (RLU) (Activin A [11]) | Kd (Activin B [12]) | Binder
~0.001 nM | ~0.001 nM | ~0.612 nM | ~0.001 nM | ~9.15 nM | ~0.001 nM | 0.6 nM | 15 nM | 3.8 nM | 0.3 nM | 1.9 nM | 8.4 nM | ~0.001 nM | A118 (Fc fusion, also called multispecific antagonist molecule A118) GNCWLRQAKNGRCQVLYKTELSKEECCSTGRLSTSWTEEDVNDNTLFKWMIFNGGAPNCIPCKETCENVDCGPGQSCVVDQTGSPRCVCAPDCSNITWKGPVCGLDGKTYRNECALLKARCKEQPELEVQYQGRCKKTCRDVFCPGSSTCVVDQTNNAYCVTCNRICPEPASSEQYLCGNDGVTYSSACHLRKATCLLGRSIGLAYEGKCIKAKSCEDIQCTGGKKCLWDFKVGRGRCSLCDELCPDSKSDEPVCASDNATYASECAMKEAACSSGVLLEVKHSGSCNSISEDTEEEEEDEDQDYSFPISSILEWGGGGSGGGGSGGGGS[no letters for human IgG1 Fc]GGGGSGGGGSGGGGSTIPPHVQKSDVEMEAQKDEIICPSCNRTAHPLRHINNDMIVTDNNGAVKFPQLCKFCDVRFSTCDNQKSCMSNCSITSICEKPQEVCVAVWRKNDENITLETVCHDPKLPYHDFILEDAASPKCIMKEKKKPGETFFMCSCSSDECNDNIIFSEEYNTSNPD
~0.001 nM | ~0.001 nM | ~0.407 nM | ~0.001 nM | ~8.35 nM | ~0.001 nM | 1.7 nM | 1.6 nM | 4.8 nM | 0.1 nM | 0.2 nM | 1.9 nM | ~0.001 nM | A116 (Fc fusion, also called multispecific antagonist molecule A116; multispecific polypeptide antagonist A116) [no letters for about 120 residues]GGGGSGGGGSGGGGS[no letters for human IgG1 Fc]GGGGSGGGGSGGGGSTIPPHVQKSDVEMEAQKDEIICPSCNRTAHPLRHINNDMIVTDNNGAVKFPQLCKFCDVRFSTCDNQKSCMSNCSITSICEKPQEVCVAVWRKNDENITLETVCHDPKLPYHDFILEDAASPKCIMKEKKKPGETFFMCSCSSDECNDNIIFSEEYNTSNPD
